The labels stand for the following.
B1: PhoQ; a variant is named by its letters at X, in order, P23837 (parent)
chain: MKKLLRLFFPLSLRVRFLLATAAVVLVLSLAYGMVALIGYSVSFDKTTFRLLRGESNLFYTLAKWENNKLHVELPENIDKQSPTMTLIYDENGQLLWAQRDVPWLMKMIQPDWLKSNGFHEIEADVNDTSLLLSGDHSIQQQLQEVREDDDDAEMTHSVAVNVYPATSRMPKLTIVVVDTIPVELKSSYMVWSWFIYVLSANLLLVIPLLWVAAWWSLRPIEALAKEVRELEEHNRELLNPATTRELTSLVRNLNRLLKSERERYDKYRTTLTDLTHSLKTPLXXLQXXLRSLRSEKMSVSDAEPVMLEQISRISQQIGYYLHRASMRGGTLLSRELHPVAPLLDNLTSALNKVYQRKGVNISLDISPEISFVGEQNDFVEVMGNVLDNACKYCLEFVEISARQTDEHLYIVVEDDGPGIPLSKREVIFDRGQRVDTLRPGQGVGLAVAREITEQYEGKIVAGESMLGGARMEVIFGRQHSAPKDE

The list shows a part of the results.

The variants in this experiment derive from B1. Description: enrichment ratio after two sorts for PhoP signalling (ratio (wild type AVST 3.29)); higher = more functional. Conditions: with PhoP (E. coli).
On to LHFM, for which the enrichment ratio was not above 0.25. Then QDLE, with not above 0.25; and EYDY, with not above 0.25; and YMAA, with not above 0.25.

Turning to FNWN, the enrichment ratio is not above 0.25. MTGR: the enrichment ratio is not above 0.25. On to WRDY, for which the enrichment ratio was not above 0.25. Then LIFG, with not above 0.25; and TVNE, with 2.34. For HQYN, the enrichment ratio was not above 0.25. Regarding TFFS, the enrichment ratio is not above 0.25. Regarding HGNY, the enrichment ratio is not above 0.25.

Regarding VLVK, the enrichment ratio was not above 0.25. Next, KYVI: not above 0.25; QELY: not above 0.25.

YLLV: the enrichment ratio was not above 0.25. As to DHRT, the enrichment ratio was not above 0.25. Take KLWG: the enrichment ratio was not above 0.25.

With MEQW, the enrichment ratio was not above 0.25. On to YLAD, for which the enrichment ratio is not above 0.25.

In the case of QQWT, the enrichment ratio is not above 0.25. Take DVMN: the enrichment ratio is not above 0.25.

Turning to PQAI, the enrichment ratio was not above 0.25.

Regarding MWVS, the enrichment ratio is not above 0.25.

In the case of DCII, the enrichment ratio is not above 0.25. Next, DSQT: not above 0.25. In the case of EGHT, the enrichment ratio is not above 0.25. As for HQMV, the enrichment ratio is not above 0.25. Next, PCVS: not above 0.25. IVHP: the enrichment ratio was not above 0.25. Then ANTK, with not above 0.25; and ETCR, with not above 0.25. On to GSNC, for which the enrichment ratio was not above 0.25.

In the case of KINE, the enrichment ratio was not above 0.25. Turning to NNTF, the enrichment ratio is not above 0.25.

As to LYNE, the enrichment ratio was not above 0.25.

Consider KRLI, for which the enrichment ratio was not above 0.25.

With GFCY, the enrichment ratio is not above 0.25. Next, RMGH: not above 0.25; SWRI: 0.665.

With KRLH, the enrichment ratio is not above 0.25. With SYPV, the enrichment ratio is not above 0.25. Turning to VGPV, the enrichment ratio is not above 0.25. For the variant GLWY, the enrichment ratio was not above 0.25. Consider SPQR, for which the enrichment ratio was not above 0.25.

Consider YKPE, for which the enrichment ratio is not above 0.25. For VHTK, the enrichment ratio is not above 0.25. As to DEKT, the enrichment ratio was not above 0.25. With ANYN, the enrichment ratio was not above 0.25.

As for TPEI, the enrichment ratio is not above 0.25. As to HMPT, the enrichment ratio was not above 0.25.

ALNM: the enrichment ratio is not above 0.25. Take SEMK: the enrichment ratio is 7.11. Then DKNQ, with not above 0.25. For NHME, the enrichment ratio was not above 0.25. For the variant VPDW, the enrichment ratio is not above 0.25.

As for NFKK, the enrichment ratio was not above 0.25. In the case of QHRI, the enrichment ratio was not above 0.25. For PRAC, the enrichment ratio was not above 0.25. As for MRHV, the enrichment ratio is not above 0.25. Regarding HWTQ, the enrichment ratio was not above 0.25. As to HQPG, the enrichment ratio was not above 0.25. GKTF: the enrichment ratio is not above 0.25. As to SWAS, the enrichment ratio is not above 0.25. Turning to IFCN, the enrichment ratio is not above 0.25. Take IIEM: the enrichment ratio is not above 0.25. As for TRPS, the enrichment ratio is not above 0.25.

Turning to SWQQ, the enrichment ratio was not above 0.25. Next, WKFQ: not above 0.25; MCTY: not above 0.25. For GMPG, the enrichment ratio was not above 0.25. For NGIF, the enrichment ratio was not above 0.25. As to YKGH, the enrichment ratio was not above 0.25. For MSMH, the enrichment ratio is 4.84. For SCKQ, the enrichment ratio was not above 0.25.

MFCN: the enrichment ratio was not above 0.25. In the case of KGRV, the enrichment ratio was not above 0.25.

Take YGLF: the enrichment ratio was found to be 0.466. As to TGAY, the enrichment ratio is 4.95.

As to LGYN, the enrichment ratio was not above 0.25. Take RHHI: the enrichment ratio was not above 0.25. As for WMAD, the enrichment ratio is not above 0.25. PPIQ: the enrichment ratio was not above 0.25. Turning to VMMR, the enrichment ratio was not above 0.25. As to ELLF, the enrichment ratio is not above 0.25. Next, NWTR: not above 0.25; HDYR: not above 0.25.

Consider SMSI, for which the enrichment ratio was 12.9. Next, NHFI: not above 0.25; ISQK: not above 0.25. Next, PHCG: not above 0.25. FGGY: the enrichment ratio is not above 0.25. Turning to STLT, the enrichment ratio is 12.3.

As for LTIE, the enrichment ratio was not above 0.25.

For TKKA, the enrichment ratio was not above 0.25. Then MEPM, with 2.11; and DYKI, with not above 0.25. Turning to DMGQ, the enrichment ratio was not above 0.25. As for RLWD, the enrichment ratio was not above 0.25. Then EPGH, with not above 0.25; and VWGG, with not above 0.25; and IFWQ, with not above 0.25. Turning to MHIF, the enrichment ratio was not above 0.25. Consider QKTR, for which the enrichment ratio came to 5.2.

As to HAFV, the enrichment ratio is not above 0.25. On to EERG, for which the enrichment ratio was not above 0.25.

VSGP: the enrichment ratio is not above 0.25. Take DAKW: the enrichment ratio was not above 0.25. With ELVL, the enrichment ratio was not above 0.25. For the variant QVMY, the enrichment ratio was not above 0.25. With KKFQ, the enrichment ratio is not above 0.25. In the case of PLID, the enrichment ratio was not above 0.25.

As for DYFA, the enrichment ratio was not above 0.25. For the variant VEHN, the enrichment ratio was not above 0.25. Turning to INGT, the enrichment ratio was not above 0.25. In the case of TRFC, the enrichment ratio was not above 0.25. As to TRLR, the enrichment ratio is not above 0.25. Next, QTSS: 3.29; DLEI: not above 0.25. Turning to TWPD, the enrichment ratio is not above 0.25. For SKFD, the enrichment ratio is not above 0.25. Next, TLGG: 7.45; RGHV: not above 0.25; MCKQ: not above 0.25. With TGCT, the enrichment ratio was found to be 1.82.

Regarding HYCW, the enrichment ratio is not above 0.25. As to WATR, the enrichment ratio was not above 0.25. LHWV: the enrichment ratio was not above 0.25.

As for RNKG, the enrichment ratio is not above 0.25. Then DLTN, with not above 0.25.

For GYVW, the enrichment ratio is not above 0.25. Next, EGND: not above 0.25; FPEW: not above 0.25; PLGG: not above 0.25. As to GKPL, the enrichment ratio was not above 0.25.

In the case of RQEI, the enrichment ratio was not above 0.25. In the case of MAVN, the enrichment ratio was not above 0.25. Next, NSCE: not above 0.25. Regarding NFFQ, the enrichment ratio was not above 0.25.

With AINK, the enrichment ratio is 4.66.

Regarding KAPP, the enrichment ratio is not above 0.25.

For the variant RVNA, the enrichment ratio was not above 0.25. In the case of HFTL, the enrichment ratio is not above 0.25. FSMP: the enrichment ratio is not above 0.25. Regarding DHQG, the enrichment ratio was not above 0.25. For TTIM, the enrichment ratio is not above 0.25. On to IYWD, for which the enrichment ratio was not above 0.25.

Consider YPPT, for which the enrichment ratio is not above 0.25. Consider KDVS, for which the enrichment ratio is not above 0.25. As for MGAT, the enrichment ratio was determined as 18.8. Next, QHPC: not above 0.25.

Turning to IEKL, the enrichment ratio is not above 0.25.

For KNFI, the enrichment ratio is not above 0.25. For the variant FFYF, the enrichment ratio was not above 0.25. WHCR: the enrichment ratio is not above 0.25. Consider NWQT, for which the enrichment ratio was not above 0.25.

For SYVI, the enrichment ratio is 0.418.

As to IDWN, the enrichment ratio is not above 0.25. On to LESH, for which the enrichment ratio was not above 0.25.

Regarding HEIE, the enrichment ratio was not above 0.25. On to LAGR, for which the enrichment ratio is not above 0.25. Next, KNDY: not above 0.25; LVSE: not above 0.25.

Turning to EANH, the enrichment ratio was not above 0.25. As to SIGI, the enrichment ratio came to 10.5.

For YCLP, the enrichment ratio is not above 0.25. Consider QFPF, for which the enrichment ratio was not above 0.25.

For the variant QKVP, the enrichment ratio was not above 0.25.

DLIA: the enrichment ratio is not above 0.25. Regarding PCKC, the enrichment ratio was not above 0.25.

As for RPIK, the enrichment ratio was not above 0.25. Then GIFF, with not above 0.25; and APFS, with not above 0.25; and NMKI, with not above 0.25. Consider PQNQ, for which the enrichment ratio was not above 0.25. As for QGIK, the enrichment ratio is not above 0.25. Regarding MSRE, the enrichment ratio is not above 0.25. Then MVTC, with not above 0.25; and QDNL, with not above 0.25. Regarding PYNN, the enrichment ratio was not above 0.25. For DVVC, the enrichment ratio is not above 0.25. In the case of EPLR, the enrichment ratio was not above 0.25.

As to MHDI, the enrichment ratio is not above 0.25. Regarding VCLH, the enrichment ratio was not above 0.25. For the variant PMRL, the enrichment ratio is not above 0.25. Then EARP, with not above 0.25; and NMSR, with not above 0.25. Regarding IYQI, the enrichment ratio was not above 0.25. As for FLTH, the enrichment ratio is not above 0.25. Then QERE, with not above 0.25; and FNAA, with not above 0.25; and PESA, with not above 0.25. Next, EHVR: not above 0.25; EKNN: not above 0.25. NEWF: the enrichment ratio was not above 0.25.

The record behind these values is a collection of fitness landscapes (doi:10.1126/science.1257360).
